Assay results as given in paper PMC7819943, “Rice protein-binding microarrays: a tool to detect cis-acting elements near promoter regions in rice”.
Some of the results follow.

Target: T1, OsWOX13 (Oryza sativa, UniProt Q5QMM3 1-267)
T1 sequence: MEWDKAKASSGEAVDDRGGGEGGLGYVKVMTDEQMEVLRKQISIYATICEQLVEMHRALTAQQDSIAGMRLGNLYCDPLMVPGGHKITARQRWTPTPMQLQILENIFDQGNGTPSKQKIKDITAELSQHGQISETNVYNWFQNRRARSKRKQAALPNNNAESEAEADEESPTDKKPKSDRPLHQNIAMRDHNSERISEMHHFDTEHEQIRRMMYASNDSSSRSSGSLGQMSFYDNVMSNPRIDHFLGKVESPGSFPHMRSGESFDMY
Experiment: protein-binding microarray (RPBM); PBS, 2% BSA, 51.3 ng/ul salmon testes DNA, 50 uM zinc acetate, 200 nM TF, 25 C, 1 h; high values mean tight binding
Details: protein: recombinant; tags: N-terminal polyhistidine and DsRed monomer fusion (pET32a); label: CyDye5-dUTP incorporated in the synthesized complementary strand; 3' TTTTT single-stranded linker to array surface; dsDNA, one strand shown
Procedure, shortened: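 Transcription factors, each fused N-terminally to a polyhistidine tag and DsRed, were expressed in E. coli BL21-CodonPlus and purified on Ni–NTA. A custom Agilent array was made double-stranded by primer extension with Cy5-dUTP and blocked with 2% BSA. It was incubated with 200 nM protein in PBS, 2% BSA, salmon testes DNA and 50 µM zinc acetate at 25 °C for 1 h, then washed. The binding signal is per-feature fluorescence intensity (arbitrary units) read on an Axon 4000B scanner.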

Sequence	binding signal
GTGTAATTTTGTTAGGAAATTTGGGTTTGAATCAGTGGAACGGAGTCACCTAGTGCAG	12500 fluorescence intensity (a.u.)
CACACTTGTTAATTGGCAGAGAATTCACAAGTCCCATCAACGGAGTCACCTAGTGCAG	20000 fluorescence intensity (a.u.)
TCTTGATGAGTTATACAACTTTGTTGTTGATAACTTTCCCCGGAGTCACCTAGTGCAG	12600 fluorescence intensity (a.u.)
ATAAATACTTCTTTAATTATTATTAACATAACATAGAAAACGGAGTCACCTAGTGCAG	3280 fluorescence intensity (a.u.)
TTTAACACAAATTCTAATGATAAACACAGTTGAGCCTCCCCGGAGTCACCTAGTGCAG	4640 fluorescence intensity (a.u.)
GTGATTTTGTTAAACTTAGGCTGCTTGTTTCATCAATTGCCGGAGTCACCTAGTGCAG	3740 fluorescence intensity (a.u.)
GTACAATTATTAATAGAGATACATATCTCAACGACTACACCGGAGTCACCTAGTGCAG	5340 fluorescence intensity (a.u.)
TATTCTGATTGGAACTTATGAGTCTTGAATTCTTGATTCTCGGAGTCACCTAGTGCAG	39000 fluorescence intensity (a.u.)
ATAACAAGAGATCAATCACAGAAGACACGAGATTTAACGTCGGAGTCACCTAGTGCAG	13000 fluorescence intensity (a.u.)
GCTGATAAGCATAAGCATAATTGAAAAGATAAGGCCCTTACGGAGTCACCTAGTGCAG	3610 fluorescence intensity (a.u.)
CGCCCCTGATTACTCCAGTGATCTGGCACACATTCTATTTCGGAGTCACCTAGTGCAG	11200 fluorescence intensity (a.u.)
CCTCGTAATTTGATAAATGCCAGCAAATTACTCTCCGTAACGGAGTCACCTAGTGCAG	38900 fluorescence intensity (a.u.)
TTATGACTGAATAATCTTGTTACTGTACAGGCTTGTGGATCGGAGTCACCTAGTGCAG	26600 fluorescence intensity (a.u.)
AGAAAGGATTGTGCTGATTGCTGTGCCAGGGAGAGAGGTTCGGAGTCACCTAGTGCAG	7740 fluorescence intensity (a.u.)
GGACATGATTTTGTTATAGAATCGAATCCATGTTGCATACCGGAGTCACCTAGTGCAG	8220 fluorescence intensity (a.u.)
GGTAATTTAACAATATTGCCAAGTTTTAGCATGATTTCTTCGGAGTCACCTAGTGCAG	11400 fluorescence intensity (a.u.)
TGGCTAATAGATAGTTACATACTATTCCCTGCATCTCAAACGGAGTCACCTAGTGCAG	12100 fluorescence intensity (a.u.)
CACTCCTCATCTCCAATCACACCACACTGGTAAGAATCAACGGAGTCACCTAGTGCAG	4820 fluorescence intensity (a.u.)
GCAATCACGTTTGCATAATTTTGGACACATGATTTGAAAACGGAGTCACCTAGTGCAG	10400 fluorescence intensity (a.u.)
CGAAATTTAATGGCGCCATATATTAAAACACGGAGGGAGTCGGAGTCACCTAGTGCAG	6740 fluorescence intensity (a.u.)
ACCCAATTATTAACCTTTTGCCCTTAACTGCATCTCCCGCCGGAGTCACCTAGTGCAG	8430 fluorescence intensity (a.u.)

Sequence	binding signal
ATATTATTAATTTCCATTCCTATTTGAGTGCTTCCAAATACGGAGTCACCTAGTGCAG	5610 fluorescence intensity (a.u.)
AAGCTAACAAATTTCCATAATTGCTTCCAGTGAAAAGGTTCGGAGTCACCTAGTGCAG	12000 fluorescence intensity (a.u.)
ATTATAAATAATCATTAAATGCACGAAACAACCGCGCCAGCGGAGTCACCTAGTGCAG	4620 fluorescence intensity (a.u.)
AAAAGAATAATTTATTGTCTTGTTCAGTTAATCCCTCCCTCGGAGTCACCTAGTGCAG	3330 fluorescence intensity (a.u.)
CCACAATCAATTTGACGTCGCCCCTATTTATGTCCTGCCTCGGAGTCACCTAGTGCAG	17600 fluorescence intensity (a.u.)
TGGCGTGATTGCAATTTGCAGTTTGTCCCTTTTGACATATCGGAGTCACCTAGTGCAG	38100 fluorescence intensity (a.u.)
TGGTTATATACAGATGCAAATTGCTAATCAGTAGTACTTACGGAGTCACCTAGTGCAG	5290 fluorescence intensity (a.u.)
CTATAATTTGTAGATGATGTAGTATAATTATATTTAATCACGGAGTCACCTAGTGCAG	37300 fluorescence intensity (a.u.)
GGAGTTGATTGATGGACCTAGAATTGGTTGAGATCCTCAGCGGAGTCACCTAGTGCAG	63700 fluorescence intensity (a.u.)
ACTAAATGAAAGTCTAAGATTTGCCATGTTATTATGATAACGGAGTCACCTAGTGCAG	4700 fluorescence intensity (a.u.)
ATATGATTCCTACATTAACATAACGAGTTTGTGTTTACAACGGAGTCACCTAGTGCAG	4200 fluorescence intensity (a.u.)
TGGCAATTGGCATAACAGAATAGATGCCGCTTGCCGTCATCGGAGTCACCTAGTGCAG	4480 fluorescence intensity (a.u.)
TCACCTGAAAATTGATTATCTACAAAACCACTTCGACGATCGGAGTCACCTAGTGCAG	12800 fluorescence intensity (a.u.)
GAAAATTGACCATAGGCGTGACGAGTCACGTCGGTACAGGCGGAGTCACCTAGTGCAG	21100 fluorescence intensity (a.u.)
CGTAATTGCATCTCTATTTTCATCTCTACTTCATTTCTCTCGGAGTCACCTAGTGCAG	37900 fluorescence intensity (a.u.)
AGATAATTATCATCGTCCACTCTATCCGCCTCCAGCTTGCCGGAGTCACCTAGTGCAG	39600 fluorescence intensity (a.u.)
AGTGCTAAATTGGTATTTTATGGGACAGAGGGAGTAACTCCGGAGTCACCTAGTGCAG	16100 fluorescence intensity (a.u.)
TGTTGATAGGTATAGGTATGAATCGAATTCTTATAACTAGCGGAGTCACCTAGTGCAG	15700 fluorescence intensity (a.u.)
TAATATAATAATAGATAGATAGATTCATCAACTACTGCTTCGGAGTCACCTAGTGCAG	7100 fluorescence intensity (a.u.)
AAATCAATCTCAACATTATCCCTTTCTTGAGGCTGAGGTTCGGAGTCACCTAGTGCAG	4060 fluorescence intensity (a.u.)
GTACATAATGCCTAATCGATTGATTTAATATATGCTGGACCGGAGTCACCTAGTGCAG	9230 fluorescence intensity (a.u.)
